Results as given in paper PMC4336329 (PLoS ONE, 2015).
Hit rate of the full screen: of about 310,000 compounds, about 2,200 (0.71%) showed an effect of 50% or more. The effect is printed as a negative number. The list shows a part of the results.

biological target: human ether-à-go-go-related gene (hERG) potassium channel (human, UniProt Q12809); test: primary screen, population patch clamp on CHO cells stably expressing hERG
Sequence (Q12809 whole entry, looked up): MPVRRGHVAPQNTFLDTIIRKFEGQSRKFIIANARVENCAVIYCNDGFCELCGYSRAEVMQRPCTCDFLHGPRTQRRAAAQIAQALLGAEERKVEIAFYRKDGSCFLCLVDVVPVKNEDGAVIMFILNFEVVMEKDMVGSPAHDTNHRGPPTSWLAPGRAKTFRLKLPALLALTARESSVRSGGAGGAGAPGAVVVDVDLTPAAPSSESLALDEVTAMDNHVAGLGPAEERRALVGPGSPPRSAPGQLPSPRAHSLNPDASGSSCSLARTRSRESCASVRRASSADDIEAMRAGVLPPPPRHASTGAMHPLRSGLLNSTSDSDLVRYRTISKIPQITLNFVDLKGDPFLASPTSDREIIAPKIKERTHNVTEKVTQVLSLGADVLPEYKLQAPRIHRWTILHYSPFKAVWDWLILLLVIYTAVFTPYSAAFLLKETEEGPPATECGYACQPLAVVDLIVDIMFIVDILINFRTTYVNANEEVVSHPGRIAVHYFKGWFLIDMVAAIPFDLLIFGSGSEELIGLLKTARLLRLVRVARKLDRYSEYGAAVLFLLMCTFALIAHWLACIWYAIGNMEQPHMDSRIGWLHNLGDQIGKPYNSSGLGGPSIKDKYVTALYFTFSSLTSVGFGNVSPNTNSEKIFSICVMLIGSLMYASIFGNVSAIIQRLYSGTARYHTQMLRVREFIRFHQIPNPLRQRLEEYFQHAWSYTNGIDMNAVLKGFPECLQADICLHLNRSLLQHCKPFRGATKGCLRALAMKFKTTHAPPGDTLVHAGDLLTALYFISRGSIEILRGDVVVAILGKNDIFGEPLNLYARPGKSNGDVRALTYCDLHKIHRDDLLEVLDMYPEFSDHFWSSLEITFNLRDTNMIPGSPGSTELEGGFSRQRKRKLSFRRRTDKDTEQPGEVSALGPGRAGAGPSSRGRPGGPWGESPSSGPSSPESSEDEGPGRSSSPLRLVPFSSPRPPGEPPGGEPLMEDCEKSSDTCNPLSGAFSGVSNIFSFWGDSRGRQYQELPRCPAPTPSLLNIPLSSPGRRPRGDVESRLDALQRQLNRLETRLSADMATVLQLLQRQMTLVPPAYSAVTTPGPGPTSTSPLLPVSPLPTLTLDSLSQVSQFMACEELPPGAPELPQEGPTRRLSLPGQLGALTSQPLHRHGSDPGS

| SMILES | hERG current change (%, negative = inhibition) at 1uM |
| --- | --- |
| Cc1ccccc1-n1c(-c2csc3ccccc23)n[nH]c1=S | 6.3% |
| Cc1cc(NC(=O)C2C3C(=O)N(CCC(C)C)C(C(=O)NCc4ccccc4)C34C=CC2(C)O4)no1 (stereo not shown) | 12.5% |
| COc1ccc(OC)c(CN2CCN(C(=O)c3ccco3)CC2)c1.O=C(O)C(=O)O | 12.2% |
| O=c1[nH]c(C2CCN(S(=O)(=O)Cc3ccccc3)CC2)nc2c1nnn2Cc1ccccc1Cl | 13.8% |
| Cc1ccc(C)c(C(=O)CN2C(=O)c3ccccc3S2(=O)=O)c1 | 16.3% |
| COc1cccc(-c2nc(CS(=O)(=O)CC(=O)Nc3cccc(C(C)=O)c3)c(C)o2)c1 | 48.5% |
| CC(=O)c1ccc(NC(=O)CC2Nc3cccc4cccc(c34)NC2=O)cc1 (stereo not shown) | 18% |
| O=C(COC(=O)c1ccc(F)cc1F)Nc1ccc(Cl)cn1 | 0.0609% |
| COc1cccc(CNC(=O)CCCn2nc(C)c3c(C)n(-c4ccc(C)cc4)nc3c2=O)c1OC | 13.1% |
| COCCn1c(C)cc(C(=O)COc2ccc(C)nc2[N+](=O)[O-])c1C | 4.72% |
| CCc1ccc(N2C(=O)Nc3ccccc3C2(O)C(=O)N2CCN(c3ccccn3)CC2)cc1 (stereo not shown) | 1.81% |
| FC(F)(F)c1cc(CCN2C(=S)NC[C@@H]2Cc2ccccc2)cc(C(F)(F)F)c1 | 15% |
| CC(C)(C)NC(=O)NCC1CCCC1NC(=O)NC(C)(C)C (stereo not shown) | 11.6% |
| CN1CCN(CCCNC(=O)CCCOc2cc(=O)n(C)c3ccccc23)CC1 | 3.78% |
| CCOC(=O)COc1c(Cl)cc(/C=C2\N=C(C)OC2=O)cc1OC | 15.4% |
| Cc1c(CC(=O)NCC(C)C)c(=O)oc2cc3c(cc12)CCC(C)(C)O3 | 13.9% |
| Cc1cc(C(=O)N/N=C/c2ccc(C)s2)n[nH]1 | 14.1% |
| Cc1ccc(S(=O)(=O)N2CCN(C(=O)c3cccs3)CC2)cc1C | 2.03% |
| CSc1ccc(/C=N/N2CCN(Cc3ccccc3Cl)CC2)cc1 | 9.96% |
| CCn1c2ccc(/C(C)=N\O)cc2c2cc(/C(C)=N\O)ccc21 | 10.5% |
| COC(=O)c1c(C)[nH]c(C(C)=O)c1C | 4.12% |
| COC(=O)C1CSC(C(=O)OC)N1C(=O)Nc1ccccc1 (stereo not shown) | 7.39% |

| SMILES | hERG current change (%, negative = inhibition) at 1uM |
| --- | --- |
| CC(C)c1ccc(NC(=O)C2CC(=O)N(C3CCCC3)C2)cc1 (stereo not shown) | 13.9% |
| CCn1c(=O)c2sccc2n(Cc2ccccc2)c1=O | 8.5% |
| NC(=O)NC(CC(=O)N1CCc2ccccc2C1)c1ccc(Cl)cc1 (stereo not shown) | 9.39% |
| NS(=O)(=O)c1ccc(CCNC(=O)C2CCCO2)cc1 (stereo not shown) | 13% |
| Cn1c(N)nc2nc(CCc3ccccc3)c(=O)[nH]c2c1=O | 13.7% |
| CN(C)c1ccc(NC(=S)NC23CC4CC(CC(C4)C2)C3)cc1 | 21.3% |
| O=C(NCCCN1CCCC1=O)c1ccc2c(=O)n(-c3ccccc3F)c(=S)[nH]c2c1 | 4.18% |
| O=c1nc(N2CCCC2)nc(Nc2ccccc2)[nH]1 | 13% |
| Cc1c(CCO)c(=O)n(-c2ccccc2)n1S(=O)(=O)c1c(Cl)cc(Cl)cc1Cl | 14.8% |
| CCn1c(COc2cc(C)ccc2C(C)C)nnc1SCC(=O)Nc1nccs1 | 10.4% |
| COc1ccc(S(=O)(=O)n2nc(OC(C)=O)cc2N)cc1 | 5.95% |
| NS(=O)(=O)c1cccc(NC(=O)c2ccno2)c1 | 13.4% |
| CCOC(=O)C1CCN(C(=O)CN(C)S(=O)(=O)c2ccc3c(c2)c(=O)n(C)c(=O)n3C)CC1 | 11.2% |
| O=C(Nc1ccccc1)c1ccc(CN2CCc3ccccc3C2)cc1 | 16.7% |
| CCc1ccc(CNC(=O)CCC(=O)N2Cc3cccc(OC)c3Oc3ncccc32)cc1 | -46.8% |
| CC(=O)c1ccc(NC(=S)NC(=O)CC(C)C)cc1 | 14% |
| CC(=O)O.O=c1/c(=C/c2ccc(O)cc2)sc2n1CCCN=2 | -6.58% |
| Cc1nc(SCC(=O)Nc2ccccc2C(F)(F)F)c(C#N)c(C)c1CC(=O)c1ccc(Br)cc1 | 22.1% |
| O=C(NCCn1cc(SCc2ccc(F)cc2)c2ccccc21)c1c(F)cccc1F | 11.2% |
| CN(C)c1nc(-c2ccccc2)nnc1C(F)(F)F | 3.22% |
| COc1ccccc1-c1oc2ccccc2c1C#CC(C)(C)O | 16.5% |
| CCOC(=O)c1nn(-c2ccccc2)c(=O)cc1OCC(=O)Nc1cccc(OC)c1 | 7.64% |

| SMILES | hERG current change (%, negative = inhibition) at 1uM |
| --- | --- |
| CCCOc1ccc(N2CC(C(=O)Nc3ccccc3C(=O)NC)CC2=O)cc1 (stereo not shown) | -56.5% |
| O=C(NCC(=O)N(Cc1ccccc1)C(C(=O)NC1CCCC1)c1ccco1)c1ccco1 (stereo not shown) | -7.02% |
| Cc1noc(C)c1CCC(=O)N1CCCC(CCC(=O)NCc2ccccc2F)C1 (stereo not shown) | 10.9% |
| CCCCc1c(O)nc(SCC(=O)c2ccccc2)n(-c2ccccc2)c1=O | 12.7% |
| CC(=O)c1cccc(N(CC(=O)N2CCCCC2)S(C)(=O)=O)c1 | -1.34% |
| COc1ccccc1CNC(=O)CS(=O)Cc1nc(-c2ccc(OC)c(OC)c2)oc1C (stereo not shown) | 1.79% |
| COCCSc1nnc(NC(=O)C2CC(=O)N(c3ccc(OC)cc3)C2)s1 (stereo not shown) | 11.8% |
| COc1ccc(/C=N/NC(=O)c2[nH]c3ccc(C)cc3c2-c2ccccc2)c(C(=O)O)c1OC | 16.1% |
| Cc1ccc(O)c(-c2[nH]ncc2C(=O)c2ccc(Br)cc2)c1 | 8.94% |
| COc1ccc(OC)c(S(=O)(=O)N2CCN(C(=O)c3ccco3)CC2)c1 | 19.1% |
| Nc1ccc(C(=O)Nc2nc3ccccc3s2)cc1 | 16.8% |
| Cc1cc(-c2nnc(CCC(=O)N(CC3CC3)CC3CCCO3)o2)no1 (stereo not shown) | 7.76% |
| O=C(OCC(=O)N1CCOCC1)c1cc(F)c(F)cc1Cl | 4.86% |
| Cc1nc2cc3ccccc3cc2c(=O)[nH]1 | -0.473% |
| Cc1cc(C)nc(SCC(=O)Nc2ncccn2)n1 | 14.4% |
| Clc1ccc(-c2csc(NNC3=NCCCCC3)n2)cc1 | 7.14% |
| CN1CCCN(C(=O)/C=C/c2ccc(F)cc2)CC1 | -5.11% |
| O=S(=O)(c1ccc(NC(=S)N2CCN(c3ccc(O)cc3)CC2)cc1)N1CCOCC1 | 13.2% |
| CCN(CC)CCC(O)(c1ccccc1)C1CCCCC1 (stereo not shown) | 7.62% |
| C[C@@H](C(=O)Nc1ccc2ccccc2c1)[C@H]1C[C@]1(C)[C@H](NS(=O)(=O)c1ccc(-c2ccccc2)cc1)c1ccccc1 | -8.41% |
| Cc1cc(C)cc(-n2nnnc2SCC(=O)Nc2cccc(NC(=O)c3ccco3)c2)c1 | 6.67% |
| COc1ccc(OC)c(NC(=O)CN2C(=O)NC(C)(c3ccc4c(c3)OCCO4)C2=O)c1 (stereo not shown) | 6.93% |

| SMILES | hERG current change (%, negative = inhibition) at 1uM |
| --- | --- |
| Cc1ccc(OCC(=O)N2CCOCC2)c([N+](=O)[O-])n1 | 18.7% |
| O=C(N/N=C/c1sc(N2CCOCC2)nc1-c1ccccc1)c1cccc(S(=O)(=O)N2CCCC2)c1 | 14.1% |
| C[C@H](NC(=O)c1nc[nH]c1C(=O)N(C)Cc1ccccc1)C(=O)OC(C)(C)C | 4.69% |
| O=C(O)c1cc(NS(=O)(=O)c2ccc(NCc3ccccc3)c([N+](=O)[O-])c2)cc(C(=O)O)c1 | 13.6% |
| COc1ccc(/C(O)=C/c2nc3ccccc3n(-c3ccccc3)c2=O)cc1 | 10.1% |
| CCCCN(C(=O)C(C)N1C(=O)c2ccccc2C1=O)c1c(N)n(CC(C)C)c(=O)[nH]c1=O (stereo not shown) | 8.92% |
| O=C1C(=O)c2ccccc2-c2ccccc21 | 9.65% |
| O=C(COC(=O)c1cccnc1Cl)Nc1ccc2c(c1)OCCO2 | -3.7% |
| COc1ccc(CN(C)C(=O)Cn2ccc(N)nc2=O)cc1OC | 20.7% |
| CCN(c1ccccc1)S(=O)(=O)c1ccc(C(=O)NCCCN2CCOCC2)cc1 | 5.57% |
| CCCCn1c(N)c(N(CC(C)C)C(=O)c2cccc(S(=O)(=O)N3CCN(C(C)=O)CC3)c2)c(=O)[nH]c1=O | 5.89% |
| O=[N+]([O-])/C=C\c1ccc(N2CCOCC2)cc1 | -5.16% |
| Cc1ccccc1NC(=O)C1CCCN(c2nnc(N3CCCC3=O)s2)C1 (stereo not shown) | 4.65% |
| O=C1c2ccccc2S(=O)(=O)N1CC1CC(c2ccc(Cl)cc2)=NO1 (stereo not shown) | -4.35% |
| COCCNC(=O)c1c(CSc2ccc(F)cc2)noc1C(=O)NCc1ccccc1 | 4.81% |
| C=C(C)C(=O)Nc1ccc(NC(C)C)cc1 | 14.5% |
| CCOC(=O)c1c(-c2ccc(OC)cc2)csc1/N=C/C1=C(O)CCCC1=O | 9.14% |
| O=C(N=C1SC2CS(=O)(=O)CC2N1Cc1ccccc1)C1CCCCC1 (stereo not shown) | 24.8% |
| CC1(C)CC(=O)c2c(n(S(=O)(=O)c3ccccc3)c3ccc(NS(=O)(=O)c4ccccc4)cc23)C1 | 13.9% |
